Source: publication PMC11335210
These are yes or no findings as the source states them, for the method shown. In cells and extracts the contact can be indirect. Some binding calls cover weakened binding; strength is not graded here.

T1: Plakophilin 4 (PKP4), endogenous in mouse keratinocytes (mouse (endogenous in mouse keratinocytes)) (UniProt Q68FH0)
T1 sequence: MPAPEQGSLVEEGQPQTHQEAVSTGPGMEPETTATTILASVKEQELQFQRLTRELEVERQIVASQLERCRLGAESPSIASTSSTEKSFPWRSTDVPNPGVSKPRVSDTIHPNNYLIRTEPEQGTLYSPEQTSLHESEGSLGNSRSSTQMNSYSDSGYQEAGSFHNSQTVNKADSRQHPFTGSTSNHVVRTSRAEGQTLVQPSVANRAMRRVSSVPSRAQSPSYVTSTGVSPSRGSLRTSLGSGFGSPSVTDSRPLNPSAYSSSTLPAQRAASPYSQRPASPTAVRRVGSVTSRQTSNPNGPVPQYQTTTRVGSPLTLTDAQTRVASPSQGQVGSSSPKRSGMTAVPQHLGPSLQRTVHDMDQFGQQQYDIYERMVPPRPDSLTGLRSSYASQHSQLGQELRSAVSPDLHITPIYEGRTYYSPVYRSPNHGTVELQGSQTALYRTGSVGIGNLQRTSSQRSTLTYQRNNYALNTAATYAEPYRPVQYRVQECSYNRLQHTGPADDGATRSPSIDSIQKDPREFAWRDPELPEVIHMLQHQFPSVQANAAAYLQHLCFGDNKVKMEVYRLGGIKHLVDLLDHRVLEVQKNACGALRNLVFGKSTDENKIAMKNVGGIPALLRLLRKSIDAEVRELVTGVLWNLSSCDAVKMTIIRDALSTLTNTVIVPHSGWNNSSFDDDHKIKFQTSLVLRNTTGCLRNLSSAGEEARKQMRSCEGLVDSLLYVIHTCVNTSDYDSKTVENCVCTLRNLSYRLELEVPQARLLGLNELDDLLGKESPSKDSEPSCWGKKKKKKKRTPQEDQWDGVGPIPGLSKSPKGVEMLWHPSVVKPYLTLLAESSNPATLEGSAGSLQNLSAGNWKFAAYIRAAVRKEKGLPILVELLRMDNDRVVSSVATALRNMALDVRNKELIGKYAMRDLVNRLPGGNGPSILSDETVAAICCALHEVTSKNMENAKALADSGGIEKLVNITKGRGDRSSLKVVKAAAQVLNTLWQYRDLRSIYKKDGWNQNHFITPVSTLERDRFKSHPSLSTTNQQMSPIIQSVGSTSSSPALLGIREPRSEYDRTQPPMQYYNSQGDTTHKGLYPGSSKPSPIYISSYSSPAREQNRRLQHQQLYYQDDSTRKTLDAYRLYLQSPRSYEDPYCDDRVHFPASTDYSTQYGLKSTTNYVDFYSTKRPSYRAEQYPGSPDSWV


Biological target: T1, Plakophilin 4 (PKP4), endogenous in mouse keratinocytes (mouse (endogenous in mouse keratinocytes))
Assay: co-IP; anti-PKP4 antibody and Protein A agarose on lysates of WT keratinocytes, PKP4-KO cells in parallel as control; IP buffer 20 mM Tris-HCl pH 7.5, 137 mM NaCl, 2 mM EDTA, 10% glycerol, 1% NP-40; overnight at 4 °C; western blot

binding | Binder
binds | PKP3 (protein, UniProt Q9QY23 1-797) MQEGNFLLSALQPETGVCSLALPSDLQLDRRGAEGPEADRLRAARVQEQVRARLLQLGQQSRHNGSAELDGSAESARGMPRGQYHTMQTGFSSRSQGMSGDKTSTFRPIAKPAYSPASWSSRSAVDLTCSRRLSSAHNGGSAFGAVGYGGTQPTPPMPTRPVSFHERGGAASRADYDTLSLRSLRLGPGGLDDRYSVVSEQLEPAAASTYRAYAYERQASSGSSRAGGLDWPEATEGPPSRTIRAPAMRTLQRFQSSHRSRGGTGSVSGAGLEPVARAPSVRSLSLSLADSGHLPDVRGLDSYTGHRTLQRLSSGFDDIDLPSAVKYLMASDPNLQVLGAAYIQHRCYSDAAAKKQARSLQAVPRLVKLFNHANQEVQRHATGAMRNLIYDNVDNKLALVEENGIFELLRTLREQDDELRKNVTGILWNLSSSDHLKDRLARDTLEQLTDLVLSPLSGAGGPPLIQQNASEAEIFYNATGFLRNLSSASQATRQKMRECHGLVDALVTYINHALDVGKCEDKSVENAVCVLRNLSYRLYDEMPPSALQRLEGRGRRDMAGAPPGEMVGCFTPQSRRLRELPLTADALTFAEVSKDPKGLEWLWSPQIVGLYNRLLQRCELNRHTTEAAAGALQNITAGDRRWAGVLSRLALEQERILNPLLDRVRTADHNQLRSLTGLIRNLSRNARNKDEMSTKVVSHLIEKLPGSVGEKCPPAEVLVNIIAVLNNLVVASPIAARDLLYFDGLRKLVFIKKKRDSPDSEKSSRAASSLLANLWQYSKLHRDFRAKGYRKEDFLGP
binds | PKP1 (protein, UniProt P97350 1-728) MNHSPLKTALAYECFQDQDNSTLALPSDQKMKTGTSGRQRVQEQVMMTVKRQKSKSSQSSTLSHSNRGSMYDGLADNYNNYGTTSRSSYFSKFQAGNGSWGYPIYNGTLKREPDNRRFSSYSQMENWSRHYPRGSCATPGAGSDICFMQKIKASRSEPDLYCDPRGTLRKGTLGSKGHKTTQNRCSFYSTCSGQKAVKKCPVRPPSCTSKQDPVYVPPISCNKDLSFGHSRASSKICSEDIECSGLTIPKAVQYLCSQDEKYQAIGAYYIQHTCFQDESAKQQVYQLGGICKLVDLLRSPNQNVQQAAAGALRNLVFRSTPNKLETRRQNGIREAVSLLRRSGSTEIQKQLTGLLWNLSSTDELKEELVADALPVLTDRVIIPFSGWCDGNSNMSREVVDPEVFFNATGCLRNLSSADAGRQTMRNYSGLIDSLMAYVQNCVAASRCDDKSVENCMCILHNLSYRLDAEVPTRYRQLEYNTRNAYTEKSSTGCFSNRGDKMMNNNYDCPLPEEETNPKGSSWLYHSDAIRTYLNLMGKSKKDATLEACAGALQNLTASKGLMSNGMSQLIGIKEKGLPQIARLLQSGNSDVVRSGASLLSNMSRHPVLHRVMGNQVFPEVTRLLTSHTGNTSNSEDILSSACYTVRNLMTSQPQMAKQYFSNSMLNNVFNLCRNTASSPKAAEAARLLLSDMWASKELQSVLRQQGFDRNMMGNIAGANNLRNFTSRF
